How the values were obtained:
[1] = test system: human peripheral blood mononuclear cells; assay: Inhibition of R848-induced TNF-α production from human peripheral blood mononuclear cells by BDCA2-ADC; assay type: cell-based; settings: 5 μM R848, 24 h
Protocol: (§1) The inhibitory effects of the antibody-drug conjugate molecules of the present application on the production from peripheral blood mononuclear cells were detected. Peripheral blood mononuclear cells produce a large number of cytokines after the stimulation of the TLR7/8 agonist R848. The peripheral blood mononuclear cells were treated in vitro with the BDCA2 antibody-drug conjugate at different concentrations, and IFNα and TNFα produced by the peripheral blood mononuclear cells were quantitatively detected after the stimulation of 5 μM R848 for a certain period of time. The in vitro activity of the ligand-drug conjugates was evaluated based on the extent of cytokine inhibition.
(§2) The cryopreserved human peripheral blood mononuclear cells were thawed, resuspended in a complete culture medium and counted, and the cell suspension was adjusted to 2.5×10^6 cells/mL with the culture medium and cultured overnight. […] The supernatant was collected, and the TNF-α and IFN-α concentration levels in the supernatant were detected using an ELISA kit. Dose-response data were fitted to an S-shaped curve using non-linear regression, and IC50 values were calculated.
TNF-α concentration assay was performed using a Dakewe TNF-α ELISA kit (Cat. No. 1117202). […] The reading at wavelength 450 nm was detected using an M2e instrument within 10 min after the termination. […]

[2] = test system: cynomolgus monkey whole blood stimulated with CpG-A; assay: TNF-α after in vitro CpG-A stimulation of whole blood of dosed cynomolgus monkeys; assay type: in vivo; design: average expression level of TNFα on days 0-33 after administration: unit not given here; settings: 10 mg/kg i.v.
Protocol: Cytokine expression was detected by whole blood stimulation in vitro.
The cells were cultured at 37° C. for 18 h, and the supernatant was collected. The TNF-α and IFN-α concentration levels in the supernatant were detected using an ELISA kit.
TNF-α concentration assay was performed using a R&D Primate TNF-α DuoSet ELISA kit (Cat. No. DY1070). 50 μL of serially diluted cytokine standard was added to each standard well, 50 μL of test sample was added to each sample well, and 50 μL of PBS was added to each blank control well. The cells were incubated at 37° C. for 2 h. The plate was washed 3 times: the liquid in each well was removed, and 300 μL of 1× PBST buffer working solution was added to each well; and after 1 minute of residence, the liquid in each well was discarded. 100 μL of detection antibody working solution was added to each well, and the cells were incubated at 37° C. for 1 h. […] The reading at wavelength 450 nm was detected using a Molecular device spectra max plus384 instrument within 10 min after the reaction was stopped.
Evaluation criteria in FIGS. 12-13: the average expression level changes of IFNα/TNFα were evaluated after in vitro stimulation of the whole blood with CpGA at 200 μg/mL on days 0-33 after administration. […]

[3] = test system: human peripheral blood mononuclear cells; assay: Inhibition of R848-induced IFN-α production from human peripheral blood mononuclear cells by BDCA2-ADC; assay type: cell-based; settings: 5 μM R848, 24 h
Protocol: as §1, §2
IFN-α concentration assay was performed using a Dakewe IFN-α ELISA kit (Cat. No. 1110012). […] The reading at wavelength 450 nm was detected using an M2e instrument within 10 min after the termination. […]

B1: Hu033-03-ADC (conjugate)
heavy: EVQLVESGGGLVKPGGSLRLSCAASGFTFSSYGMSWVRQAPGKGLEWVSTISSGDSYTYYPDSVKGRFTISRDNAKNSLYLQMNSLRAEDTAVYYCARQIYYDYAYYFDFWGQGTTVTVSS[human IgG1 constant region not spelt out]
light: DIVLTQSPASLAVSPGQRATITCRASESVSFRTSHLMHWYQQKPGQPPKLLIYGASNLESGVPARFSGSGSETDFTLTINPVEAEDTANYFCQQSIEDPPTFGGGTKVEIKRTVAAPSVFIFPPSDEQLKSGTASVVCLLNNFYPREAKVQWKVDNALQSGNSQESVTEQDSKDSTYSLSSTLTLSKADYEKHKVYACEVTHQGLSSPVTKSFNRGEC
inhibitory effect on TNF-α secretion [1]: stronger ability to inhibit TNF-α secretion
TNFα expression level compared to the blank control group ([2]; CpGA-stimulated whole blood): significantly reduced
average expression level of TNFα on days 0-33 after administration ([2]; whole blood stimulated with CpGA 200 μg/mL, before administration 5515 (FIG. 13b) and 3977 (FIG. 13c)): 4131
inhibition of IFN-α secretion [3]: stronger ability to inhibit IFN-α secretion

From US20260216362A1, “ANTI-BDCA2 ANTIBODY-DRUG CONJUGATE AND USE THEREOF” (DUALITY BIOLOGICS (SHANGHAI) CO., LTD., priority 2022, published 2026)
